The campaign covered roughly 50,000 compounds. About 800 (1.6%) showed an effect of 50% or more. The list shows a part of the results.

The assay concerns the target Bcl-2-like protein 10 (Homo sapiens) (UniProt Q9HD36). Kind of assay: TR3 peptide-Bcl-B binding displacers, biochemical primary FP assay, phenotype converters (AID 1240).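 Note: 0% = Bcl-B with tracer peptide and DMSO and 100% = tracer peptide lacking Bcl-B.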 Conditions: GST-Bcl-B / FITC-TR3 peptide fluorescence polarization; stronger effect = higher value; compound at 3.75 mg/L.
Chain of UniProt Q9HD36 (Q9HD36 whole entry, looked up): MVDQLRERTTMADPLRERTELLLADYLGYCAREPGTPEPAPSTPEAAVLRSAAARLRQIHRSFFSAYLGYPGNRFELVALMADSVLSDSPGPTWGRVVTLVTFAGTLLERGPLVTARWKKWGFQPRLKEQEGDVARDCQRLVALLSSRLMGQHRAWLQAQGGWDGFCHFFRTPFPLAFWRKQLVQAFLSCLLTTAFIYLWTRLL
For the molecule `O=C(/C=C/c1cccs1)NCCN1CCOCC1`, the displacement is 12.9%.

For the molecule `COc1ccc(/C=C/C(=O)Oc2ccc(C)c(C)c2)cc1OC`, the displacement is -4.2%.

For `O=C(Nc1cccc(-c2nc3ccccc3o2)c1)c1ccc(N2C(=O)C3C4C=CC(C4)C3C2=O)cc1` (stereo not given), the displacement was -1.5%.

For `COc1ccc(-c2cc(-c3ccccc3)nc(=O)[nH]2)cc1`, the displacement came out at 2.3%.

Take `O=C(/C=C/c1ccccc1Cl)NCc1ccccn1`: the displacement stood at 1.9%.

Consider `Cc1c(NC(=O)c2ccc(-c3cccc([N+](=O)[O-])c3)o2)cccc1-c1nc2ccccc2s1`, for which the displacement came to 3.7%.

Take `Cc1cc(C)cc(N2C(=O)NC(=O)/C(=C\c3cccc(F)c3)C2=O)c1`: the displacement turned out to be 2.3%.

For the molecule `CC(=O)CC(=O)Nc1ccc2c(c1)OCCO2`, the displacement was 4.1%.

On to `COc1cccc(CN2CCN(C(=O)c3ccccc3)CC2)c1`, for which the displacement came to 5.7%.

Take `CC(=O)Nc1c(C)cc(C(C)(C)c2cc(C)c(NC(C)=O)c(C)c2)cc1C`: the displacement is 13.9%.

Consider `CCCOc1c(I)cc(I)cc1/C=C(/C#N)c1nc2ccc(C)cc2[nH]1`, for which the displacement is -4.9%.

Take `C/C(=C\c1ccc(I)cc1)C(=O)c1c(C)cc(C)[nH]c1=O`: the displacement was found to be 10.8%.

In the case of `N#C/C(=C\c1ccc(-c2ccccc2[N+](=O)[O-])o1)c1nn(-c2ccccc2)c(N)c1C#N`, the displacement is 9.1%.

Turning to `COc1ccc(CCNC(=O)c2cc(Cl)ccc2OC)cc1`, the displacement is -1.6%.

Turning to `O=C(CCCN1C(=O)/C(=C\c2cccs2)SC1=S)Nc1nccs1`, the displacement amounted to 114%.

As for `CCOC(=O)COc1ccc(/C=N/NC(=O)c2nonc2N)cc1OC`, the displacement was 3%.

On to `CCCN1CCC(=NNC(=O)c2cccc(Br)c2)CC1`, for which the displacement stood at 3.7%.

Turning to `O=C(Nc1cccnc1)c1cc(-c2ccccc2Cl)nc2ccccc12`, the displacement is -4.9%.

In the case of `FC(F)(F)c1cc(-c2cccs2)nc2cc(-c3ccccc3)nn12`, the displacement worked out at 11%.

`CN(C)c1ccc(/C=C2\C(=O)c3cccc([N+](=O)[O-])c3C2=O)cc1`: the displacement came out at 11.9%.

With `O=C(/C=C/c1cccc([N+](=O)[O-])c1)Nc1ccc(O)c(-c2nc3ccccc3o2)c1`, the displacement was -2.4%.

In the case of `O=[N+]([O-])c1ccc(Oc2ccc(/C=N/O)cc2)nc1`, the displacement stood at 8.5%.

Regarding `O=C1c2ccc3c4c(ccc(c24)C(=O)N1CCOc1ccccc1Cl)CC3`, the displacement stood at 15.1%.

Consider `O=C(N/N=C/c1ccccn1)c1ccc(O)cc1O`, for which the displacement was -2.6%.

Regarding `COc1ccc(CNC(=O)c2c(Cl)cccc2Cl)cc1`, the displacement is -5.7%.

Take `OC(CC#CCN1CCC(c2ccccc2)C1)(c1ccccc1)c1ccccc1` (stereo not given): the displacement worked out at 10.5%.

With `NC(=O)c1ccc(NC(=O)COc2ccc(Cl)cc2Br)cc1`, the displacement was -6%.

In the case of `CCOc1ccc(NC(=O)C2C(c3ccccc3)C2(Cl)Cl)cc1` (stereo not given), the displacement was 2.6%.

For `CCOc1ccc2noc3c2c1C(=O)c1ccccc1-3`, the displacement came out at 123%.

Regarding `COc1cc(C=NN2CCN(c3ccc(Cl)cc3)CC2)cc(OC)c1OC(C)=O`, the displacement is -3.3%.

For `O=C(Nc1ccc(NC(=O)c2ccccc2[N+](=O)[O-])cc1)c1ccco1`, the displacement was -8.2%.

For `COc1ccccc1/C=C1/C(=O)NC(=O)N(c2ccccc2OC)C1=O`, the displacement was -2.3%.

Take `O=c1c(-c2ccc(Cl)cc2)coc2c(CN3CCCCC3)c(O)ccc12`: the displacement is -15.4%.

As for `CCCOc1cccc(C(=O)Nc2cc3nn(-c4ccc(OC)cc4)nc3cc2C)c1`, the displacement was -1.7%.

In the case of `Cc1ccc(C(=O)Nc2ccc(-c3nc4cc5ccccc5cc4[nH]3)cc2)cc1[N+](=O)[O-]`, the displacement was found to be 1.6%.

As for `CCOC(=O)c1c(-c2ccc(C(C)C)cc2)csc1N`, the displacement was -9.2%.

For the molecule `CCOC(=O)c1ccccc1NC(=O)CCNS(=O)(=O)c1ccccc1[N+](=O)[O-]`, the displacement was determined as 7.8%.

For the molecule `Cc1cccc(CN2CCN(C(=O)c3ccncc3)CC2)c1`, the displacement was -8.3%.

For `CC1=CC(C)(C)Nc2ccc(OC(=O)c3ccccc3Br)cc21`, the displacement was determined as 6.5%.

`OC(CNCc1ccccc1)(c1ccccc1)c1ccc(Cl)cc1` (stereo not given): the displacement was -9.4%.

In the case of `Cc1ccc(NC(=O)c2ccccc2Br)cc1`, the displacement is -2.1%.

In the case of `Cc1ccc(NC(=O)c2ccc(OCc3ccccc3)cc2)c([N+](=O)[O-])c1`, the displacement came out at 10.1%.

With `CC1(C)CC(=O)c2c(oc3ccc(NS(=O)(=O)c4cccc([N+](=O)[O-])c4)cc23)C1`, the displacement is -1.2%.

Turning to `O=C(NCCO)C(=O)NCc1ccccn1`, the displacement was -5.2%.

As for `CSC1=C(C#N)C(c2ccco2)CC(=O)N1` (stereo not given), the displacement is -6.5%.

Regarding `O=C(Nc1cc(Br)cc2cccnc12)c1ccc(Cl)cc1`, the displacement was -7.2%.

As to `Cc1ccnc(NC(=O)/C=C/c2cccc([N+](=O)[O-])c2)c1`, the displacement was 14.3%.

Take `COC(=O)c1ccc(N2C(=O)c3ccc(OC)c(OC)c3C2=O)cc1`: the displacement is -7.1%.

With `Cc1cc(Cl)ccc1OCC(=O)NNC(=O)Cc1cccs1`, the displacement came to 1.6%.

As to `COc1ccc(C(=O)Nn2cc3cc([N+](=O)[O-])ccc3n2)cc1`, the displacement is -9.5%.

On to `CCc1ccc(NC2=C(Cl)C(=O)N(c3ccc(C)cc3)C2=O)cc1`, for which the displacement was found to be 18.4%.

Consider `CCOC(=O)C1=C(C)N=c2s/c(=C\c3ccc(N(C)C)cc3)c(=O)n2C1/C=C/c1ccccc1` (stereo not given), for which the displacement came to 2.8%.

In the case of `O=C(COc1ccccc1[N+](=O)[O-])Nc1ccc(Br)cn1`, the displacement was 3.3%.

Regarding `O=C(COc1cc(Cl)ccc1Cl)Nc1ccccc1F`, the displacement is -1.3%.

Consider `Cc1ccc(OCCSc2nc(C)cc(=O)[nH]2)c(C(C)C)c1`, for which the displacement was determined as 6.3%.

For `COc1ccc(C2Nc3ccccc3C(=O)N2Cc2ccco2)cc1COc1ccc(Cl)cc1` (stereo not given), the displacement worked out at 13.2%.

`COc1ccc(N/C(C)=C/C2=[N+](c3ccccc3)C(O)(c3ccccc3)CS2)cc1` (stereo not given): the displacement is -6.8%.

Consider `Cc1sc2nc(-c3ccc(-c4cccc([N+](=O)[O-])c4)o3)[nH]c(=O)c2c1C`, for which the displacement was -15.4%.

Consider `O=C(NCc1ccco1)C(=O)Nc1ccc2c(c1)OCO2`, for which the displacement stood at 11.5%.

For `O=C(CCC1CCCCC1)N1CCN(c2cccc(Cl)c2)CC1`, the displacement was -9.9%.

`Nc1nc2nc(-c3ccco3)cc(C(F)(F)F)n2n1`: the displacement is 8%.

As to `O=C(CCN1C(=O)c2ccccc2C1=O)Nc1cc(C(F)(F)F)ccc1Cl`, the displacement was -2.6%.

For the molecule `COc1ccc(/C=C2\C(=O)NC(=O)N(c3ccc(Br)c(C)c3)C2=O)c(OC)c1`, the displacement was -20.2%.

In the case of `Fc1ccc(NC(=S)NCCC2=CCCCC2)cc1`, the displacement stood at 0.6%.

Consider `Cc1cccc(NC(=O)C(=O)NCc2ccc3c(c2)OCO3)c1`, for which the displacement worked out at 12.8%.

For `O=C(Cc1cccc2ccccc12)Nc1ccc2c(c1)OCCO2`, the displacement came out at 10.8%.

With `O=C(Cc1ccc(Cl)cc1)NNC(=O)C1CCCO1` (stereo not given), the displacement stood at 2.5%.

For the molecule `Cc1ccc(C)c(S(=O)(=O)Nc2ccccc2)c1`, the displacement was 8.2%.

Turning to `CCN1C(=O)/C(=C\c2ccc([N+](=O)[O-])cc2)C(C(=O)OC)=C1C`, the displacement was -16.2%.

For `Cc1ccc(S(=O)(=O)c2ccc(Oc3ccc(Cl)cc3)cc2)cc1`, the displacement came to 2%.

Source of the values: PubChem BioAssay AID1240 (Sanford-Burnham Center for Chemical Genomics, 2008).
